# The supplement of paper PMC3334620
# Whole data set: some 33,000 sequences, median “E-score (-0.5 to 0.5)” near -0.01, cut for the highest 2% near 0.26. This is one part of the list.
# Target: Ste12 (UniProt P13574)
# Assay: PBM E-score (8-mer binding enrichment) (E-score (-0.5 to 0.5)); higher = stronger / more preferred TF binding; most listed sequences are background and not binding sites
# Conditions: protein concentration: 200 nM; construct: GST-DNA-binding domain
# Outline: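 Full-length yeast transcription factors or their DNA-binding domains, GST-tagged and expressed with PURExpress, were applied at about 100-200 nM to universal all-10-mer Agilent arrays. These arrays had been made double-stranded by primer extension on fresh or once-stripped slides. Detection used fluorescent anti-GST, normalisation used masliner, and E-scores for ungapped eight-base words pooled with reverse complements came from the Universal PBM Analysis Suite.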
row,Sequence,PBM E-score
1,ATTACCTG,-0.0682
2,CCGCAGCA,-0.0396
3,CTTTTAAA,0.255
4,ATCGGAGC,-0.176
5,ATAAGGGA,0.0929
6,CGAAGGAA,-0.0679
7,AACGTAAT,0.109
8,AGGCTCGC,-0.202
9,TCCGTTCA,-0.13
10,AGAGTACG,-0.128
11,ATTCTAAA,0.215
12,CCAGCCGC,-0.0238
13,AGATTAAA,0.19
14,CCATTGAC,0.0101
15,ATGTTAAT,0.126
16,GAGGGACA,-0.0534
17,GCACTGAC,-0.157
18,CCCAGACA,-0.159
19,CCACGAGA,-0.135
20,AGTCCTCC,-0.108
21,GAGGACCA,-0.255
22,TATTTGGA,0.0333
23,GGCTATGA,-0.0398
24,CATAGGAA,-0.111
25,AGAACCCA,-0.133

row,Sequence,PBM E-score
1,ACACCAGT,-0.153
2,ACACAAAC,0.165
3,GCCCTGGA,-0.235
4,CCCGATGC,-0.113
5,ACTATCCA,-0.144
6,AAATGGGG,0.0467
7,ATAGGACA,-0.267
8,CCACGTTA,0.164
9,ATCAATAG,0.0293
10,CTCCCTCA,-0.192
11,AACCCTTC,0.024
12,AATTCGTC,-0.0924
13,CTAGAGTA,-0.0552
14,AATCTAAT,-0.056
15,CGGCGGAA,0.218
16,GTGTGTTA,0.201
17,ATCCGTGC,-0.0257
18,ATGGACCA,-0.0646
19,CGCGCAAC,0.0486
20,ATGTTCCC,-0.0246
21,AACTGCAA,0.0421
22,TCAGTACA,-0.0074
23,GCCGTGCC,-0.102
24,AATACCGT,0.166
25,CTCTGACA,0.19

row,Sequence,PBM E-score
1,CTACGAAA,0.069
2,CATAAAGA,0.0828
3,AGCACCAC,-0.174
4,CCGCGGAA,0.139
5,CCCGGACC,0.00052
6,CACCGTGC,0.131
7,ATAGGCGC,0.083
8,CTTGAAGC,-0.00695
9,GAACTCAC,0.0195
10,CGACAATC,-0.142
11,AGGAAAGC,-0.0002
12,ACTAAAGT,-0.047
13,AGTCTTCC,-0.111
14,CGGATGCA,-0.0904
15,GGTGAGAC,0.179
16,GAATTTGC,-0.0621
17,CCCCGTCA,0.0491
18,ACGTATAA,-0.00789
19,ACCCCTAG,0.0358
20,ATTCCAGC,-0.0173
21,GCCCCGGA,0.118
22,GCAACCCA,-0.135
23,ACACGCAA,0.168
24,TAGGATCA,0.042
25,AACGCGAG,0.0302

row,Sequence,PBM E-score
1,GACACTTA,0.0701
2,GCTGCAGA,-0.0847
3,AAACACTT,0.12
4,ATGTCAAA,0.11
5,GTTATTAA,0.188
6,AACTGCAG,0.0346
7,CCAAACCA,0.0357
8,GGCGCACC,-0.217
9,AGACGTAT,0.0342
10,AGTGATCA,-0.22
11,AGAACTCA,0.117
12,ATAAAGGC,-0.053
13,ACCCGTAC,-0.266
14,AGGCGGGC,0.0738
15,ACATGTCA,-0.0706
16,AATTAGAA,0.26
17,CGGGTCTA,0.0075
18,AGTAGTGG,0.0657
19,ACTGACCC,-0.248
20,CTAGTCCA,-0.157
21,CCCGACCG,-0.0202
22,GAATCGGA,0.0142
23,GGCAACGA,-0.0606
24,ACGATACG,-0.259
25,CGGTCTCC,-0.251

row,Sequence,PBM E-score
1,CGAAGGGA,-0.114
2,CAGACACC,-0.074
3,CAAAGTGA,0.0829
4,CAACCCCA,0.181
5,AGTTTGAT,0.172
6,AGCCGCTA,-0.0154
7,CATCAGGA,0.0459
8,AGGTGTCG,-0.179
9,CTGGCCCA,-0.214
10,CAACTTAC,-0.0144
11,AGACACCC,-0.0371
12,AATCAAGC,-0.0888
13,ATAATATA,0.301
14,ATCACGTG,-0.0478
15,CGCTCCAG,0.0315
16,GAGTGCGC,0.0193
17,AATTAATA,0.359
18,ACTCAAAT,0.00744
19,ACAACAAC,0.177
20,GACTTAAC,-0.183
21,ACGCTGTG,-0.038
22,ATATGATA,0.271
23,TCAGAGCA,-0.0242
24,GCACGGCA,-0.00321
25,AAATTCCA,0.152

row,Sequence,PBM E-score
1,GGGAGGTA,0.0975
2,AAGCTTCG,0.038
3,ACTTATTC,0.0394
4,ACCCGGTC,-0.202
5,CCTCTCTC,-0.111
6,ACTGATGC,-0.0861
7,AGTGTCTG,-0.0973
8,CATAATCA,0.165
9,CCGGCTTC,0.0151
10,GAGGGTGC,-0.102
11,AAGTTGAT,0.0307
12,TCGTGCAA,0.0959
13,CGCATGAC,-0.0101
14,ACCTACCC,-0.00868
15,ATCTCACA,0.09
16,CCAATATC,0.135
17,GTCCGGGA,0.0647
18,ATAATTCC,0.0343
19,CCTCACGA,-0.0519
20,TGCGAAAA,0.158
21,TAACATTA,0.201
22,AGCAAAGC,0.065
23,CTCAATGA,-0.121
24,CCCCGTAG,-0.186
25,GGTTCTCA,0.0128

row,Sequence,PBM E-score
1,CACTTCGG,-0.124
2,AGTGGCAG,0.153
3,ATTATATG,0.149
4,CATCCAAA,0.0524
5,CGTGCGAC,-0.212
6,TAGGACCA,-0.192
7,ACCGGAAC,0.0586
8,ACCCGTTG,-0.178
9,AGACGTTG,0.0686
10,CCTCTCAG,-0.133
11,GACTCCGC,-0.0539
12,GGCGCTAA,0.0659
13,CTTTGCAA,0.073
14,ACTTTAGG,-0.0109
15,AAATCGAT,0.0768
16,GTCGGGCA,-0.0518
17,ACCTAGAG,-0.0674
18,AGTAGTTC,0.1
19,CAAGCGCC,-0.00833
20,CACAGGAC,-0.0988
21,AGGGTTGC,0.0231
22,ATTATTGA,0.166
